About 2,200 (0.71%) of roughly 310,000 compounds showed an effect of 50% or more. Effects have a minus sign here. The list shows a part of the results.
Molecular target: human ether-à-go-go-related gene (hERG) potassium channel (human, UniProt Q12809)
Assay: primary screen, population patch clamp on CHO cells stably expressing hERG

human ether-à-go-go-related gene (hERG) potassium channel, sequence (Q12809 whole entry, looked up): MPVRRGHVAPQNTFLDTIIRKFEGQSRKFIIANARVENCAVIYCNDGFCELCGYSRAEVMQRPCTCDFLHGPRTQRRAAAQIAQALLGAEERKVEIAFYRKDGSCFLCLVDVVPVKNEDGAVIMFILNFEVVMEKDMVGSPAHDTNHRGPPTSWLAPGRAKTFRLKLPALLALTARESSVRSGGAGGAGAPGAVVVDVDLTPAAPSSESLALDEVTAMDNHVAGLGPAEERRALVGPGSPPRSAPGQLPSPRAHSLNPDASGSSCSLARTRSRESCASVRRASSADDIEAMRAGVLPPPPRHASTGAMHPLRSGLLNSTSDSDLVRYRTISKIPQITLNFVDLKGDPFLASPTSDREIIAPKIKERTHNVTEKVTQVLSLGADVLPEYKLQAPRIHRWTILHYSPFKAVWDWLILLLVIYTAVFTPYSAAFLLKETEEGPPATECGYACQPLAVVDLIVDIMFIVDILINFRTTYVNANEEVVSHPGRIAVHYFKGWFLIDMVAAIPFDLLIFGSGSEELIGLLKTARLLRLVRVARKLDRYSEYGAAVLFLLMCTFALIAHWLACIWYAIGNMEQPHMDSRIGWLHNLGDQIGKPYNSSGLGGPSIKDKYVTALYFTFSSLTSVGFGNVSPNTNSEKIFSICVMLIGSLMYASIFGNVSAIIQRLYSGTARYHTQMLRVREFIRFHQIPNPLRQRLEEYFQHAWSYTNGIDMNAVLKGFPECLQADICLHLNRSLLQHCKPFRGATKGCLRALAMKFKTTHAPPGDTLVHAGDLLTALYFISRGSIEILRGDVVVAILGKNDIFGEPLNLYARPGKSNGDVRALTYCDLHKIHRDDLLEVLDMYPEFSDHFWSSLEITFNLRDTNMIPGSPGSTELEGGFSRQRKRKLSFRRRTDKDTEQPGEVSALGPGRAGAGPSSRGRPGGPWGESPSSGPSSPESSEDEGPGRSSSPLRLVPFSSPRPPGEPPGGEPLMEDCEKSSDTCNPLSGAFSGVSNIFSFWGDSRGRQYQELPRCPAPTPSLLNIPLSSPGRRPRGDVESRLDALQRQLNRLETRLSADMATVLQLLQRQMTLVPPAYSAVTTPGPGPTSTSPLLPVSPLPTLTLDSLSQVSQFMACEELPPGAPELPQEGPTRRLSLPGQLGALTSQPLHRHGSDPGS

Row | SMILES | hERG current change (%, negative = inhibition) at 1uM
1 | CC1=C(/C=C/C(C)=N\NC(=O)c2ccncc2)C(C)(C)CCC1 | 5.92%
2 | CN(CC(=O)Nc1ccccc1Cl)C(=O)COC(=O)Cc1ccc(F)cc1 | 5.61%
3 | O=C(CSc1nnc(-c2ccccc2)n1CC1CCCO1)N1CCCC1 (stereo not shown) | 5.92%
4 | Cc1cc(F)ccc1NC(=O)C1CCN(S(=O)(=O)c2ccc3c(c2)CCCC(=O)N3)CC1 | 17.4%
5 | O=C(Nc1ccc(Oc2ccccc2)nc1)C1CCCCN1Cc1cccc(O)c1 (stereo not shown) | 11%
6 | Cc1cc(NC(=O)CCC(=O)N(CC(=O)NCC2CCCO2)c2cccc(F)c2)no1 (stereo not shown) | 11.7%
7 | Cc1ccc(S(=O)(=O)NCC(=O)OCCOc2cccc(Cl)c2)cc1 | 15.8%
8 | CCOC(=O)c1c(C)c(C(=O)NCc2ccc(OC)cc2)c(C)n1C | 15.9%
9 | COC(=O)c1c(C)[nH]c(C(=O)/C=C/c2ccc(Cl)cc2)c1C | 9.67%
10 | COc1ccccc1NC(=O)COc1cccc2c1CCNC2=O | -5.71%
11 | CC(C)C(C(=O)NCC1CCCO1)N(C(=O)CNS(=O)(=O)c1ccc(F)cc1)C1CCCCC1 (stereo not shown) | 4.69%
12 | Cc1onc(-c2ccccc2Cl)c1C(=O)N1CCN(C/C=C/c2ccccc2)CC1 | -9.12%
13 | CCc1nc2ccccc2n1CC(O)COc1ccc(NC(C)=O)cc1 (stereo not shown) | 18.3%
14 | COc1ccc(-c2cc(CNS(=O)(=O)c3ccc(NC(C)=O)cc3)on2)cc1 | 11.6%
15 | COc1ccc(-c2oc3cccnc3c2C#CC2(O)CCCCC2)cc1 | 6.61%
16 | Cc1cc(C(=O)N/N=C/C=C/c2ccc(Br)cc2)n[nH]1 | 3.44%
17 | Cc1ccccc1C(=O)NC1CC2CCCC(C1)N2Cc1ccccc1 (stereo not shown) | 3.02%
18 | O=C(CC1SC(N2CCCCC2)=NC1=O)Nc1cccc(C(F)(F)F)c1 (stereo not shown) | 11.1%
19 | O=C(COc1ccccc1[N+](=O)[O-])N1CCC(Cc2ccccc2)CC1 | 11.6%
20 | Cc1ccc(S(=O)(=O)N2CCC(C(=O)Nc3ccccc3N3CCCC3)CC2)c(C)c1 | 16.5%
21 | COC(=O)c1sccc1NC(=O)C12CC3CC(CC(C3)C1)C2 | 20.9%
22 | CCCCc1nc2ccccc2n1Cc1nnc2n1-c1ccccc1SC2 | -29.1%

Row | SMILES | hERG current change (%, negative = inhibition) at 1uM
23 | COc1ccc(CNC(=O)C2CCC(CNc3c(N4CCC(C)CC4)c(=O)c3=O)CC2)cc1 (stereo not shown) | 13.6%
24 | CNC(=S)c1cc(C(C)(C)C)c(O)c(C(C)(C)C)c1 | 10.4%
25 | CC(C)NC(=S)N/N=C1\CCCc2ccccc21 | 9.25%
26 | CCCCn1c(N)c(N(CC(C)C)C(=O)c2cc(-c3ccc(OC)c(OC)c3)nc3ccccc23)c(=O)[nH]c1=O | -0.632%
27 | CS(=O)(=O)Nc1cccc(C2=NN(S(C)(=O)=O)C(c3ccc4c(c3)OCO4)C2)c1 (stereo not shown) | -11.3%
28 | CC(C)COCC(O)CC(Cc1ccccc1)C(=O)NN (stereo not shown) | 18.1%
29 | O=C(CNC(=O)c1cccc(F)c1)OCC(=O)N1CCN(C(=O)c2ccco2)CC1 | 22.1%
30 | Cc1ccc(C(=O)CCC(=O)OCC(=O)N(CC(C)C)c2c(N)n(Cc3ccccc3)c(=O)[nH]c2=O)cc1 | -16.6%
31 | COc1ccc(NC(=O)CSc2nc(O)cc(=O)[nH]2)c(OC)c1 | 11.2%
32 | Cc1nc(=O)c(-c2ccccc2)c(C)n1-c1ccccc1C(=O)O | 17.9%
33 | c1ccc(Oc2nc(N3CCOCC3)nc(N3CCOCC3)n2)cc1 | -2.67%
34 | CCn1c(SCC(=O)Nc2nc3ccccc3s2)nnc1-c1ccc(OC)cc1 | 1.57%
35 | O=C(CSc1nnc(NC(=O)c2ccc(F)cc2F)s1)NC1CC1 | 14.9%
36 | CC(C)[N+](C)(CCC(C(N)=O)(c1ccccc1)c1ccccc1)C(C)C.[I-] | 16.6%
37 | Cc1nnc(SCC(=O)NC23CC4CC(CC(C4)C2)C3)s1 | 9.96%
38 | Cc1ccc(NC(=O)C2CCCN(S(=O)(=O)c3cccnc3)C2)cc1C (stereo not shown) | 9.65%
39 | CC(C)C[C@H](NC(=O)c1nc[nH]c1C(=O)N1CC[NH2+]CC1)C(=O)OC(C)(C)C.[Cl-] | 1.97%
40 | CCOc1cccc(/C=C/c2ccc3cccc(O)c3n2)c1OC | 9.13%
41 | COc1cc2c(C(=O)Nc3ccc4c(c3)OCO4)cn(CC(C)C)c(=O)c2cc1OC | 15.1%
42 | CCCOC(=O)c1c(NC(=O)CCCn2nc([N+](=O)[O-])c(Cl)c2C)sc(C(=O)OC)c1C | 5.75%
43 | O=C(NCc1ccc(F)cc1)c1ccc(CNc2c(N3CCOCC3)c(=O)c2=O)cc1 | 13.9%

Source: paper PMC4336329 (PLoS ONE, 2015)
